Test results reported in ChEMBL document CHEMBL4888484, “Replenishing the malaria drug discovery pipeline: Screening and hit evaluation of the MMV Hit Generation Library 1 (HGL1) against asexual blood stage Plasmodium falciparum ,using a nano luciferase reporter read-out” (2022).
Out of some 150,000 compounds screened, about 540 (0.36%) showed an effect of 50% or more. The list shows a part of the results.

These molecules were tested on Plasmodium falciparum (assay: Primary screen in NF54 nanoGlo assay, in single point, at 2uM, 72h; a lower Z score goes with more inhibition). Details: timepoint 72 hour.
Type: functional, Erythrocyte
`O=C(NCc1cc[nH]n1)Nc1cn[nH]c1` was tested, and the “% Inhibition” value was -9% and the Z score was 1.39.
With `COCCn1c(C)cnc1CC1CCN(C(=O)c2cnccn2)CC1` the “% Inhibition” value was 9% and the Z score was -1.74.
For `Nc1cc(-c2ccc3c(c2)OCO3)ccn1`, the “% Inhibition” value was -17% and the Z score was 2.25.
`C[C@@H](NCCCn1ccnc1)c1ccc(Cl)cc1` was tested, and the “% Inhibition” value was -4% and the Z score was 0.5.
In the case of `N#Cc1c(N2CC[C@H](OCCN3CCCCC3)C2)nc2ccccn12`, the “% Inhibition” value is reported as -8% and the Z score is reported as 1.05.
For `CCOc1ccc(-c2c[nH]c(-c3cncn3C)n2)cc1OCC`, the “% Inhibition” value was -11% and the Z score was 2.07.
For `CN1CCCN(C[C@@H]2CN(c3cccc(C(F)(F)F)n3)C[C@@H]2CO)CC1`, the “% Inhibition” value was 0% and the Z score was 0.03.
With `Cc1ccsc1-c1nccn1[C@H]1CS(=O)(=O)C[C@@H]1O` the “% Inhibition” value was -10% and the Z score was 1.49.
In the case of `CN(C(=O)c1cn(C)cn1)C1CN(c2ccc3nncn3n2)C1`, the “% Inhibition” value is reported as 1% and the Z score is reported as -0.11.
With `COCCNC(=O)NC(Cc1ccc2c(c1)OCO2)Cc1ccc2c(c1)OCO2` the “% Inhibition” value was -8% and the Z score was 1.54.
For `Cn1cc(Nc2ccc(C3CC3)nn2)cn1`, the “% Inhibition” value was 3% and the Z score was -0.62.
With `c1cc2c(cc1CN1CCNCC1)CCC2` the “% Inhibition” value was -5% and the Z score was 0.6.
`COc1cccc(-c2nc3c(s2)CN(C(=O)Nc2cc(C)cc(C)c2)CC3)c1` was tested, and the “% Inhibition” value was 2% and the Z score was -0.21.
With `N#Cc1ncn(CCN2C(=O)c3ccccc3C2=O)c1C#N` the “% Inhibition” value was -8% and the Z score was 1.14.
With `CCOc1ccc(Cc2nc(-c3oc4ccc(C)cc4c3C)no2)cc1OCC` the “% Inhibition” value was -1% and the Z score was 0.17.
`Cc1ccc2nc(C(=O)N3CC(c4ccncc4)C3)c(F)n2c1` was tested, and the “% Inhibition” value was -20% and the Z score was 1.9.
For `COc1ccc(CN2CCC(c3cc[nH]n3)CC2)cn1`, the “% Inhibition” value was 7% and the Z score was -1.26.
`O=C(c1cc(-c2cccc(Cl)c2)n[nH]1)N(CCN1CCCC1)C1CCOCC1` was tested, and the “% Inhibition” value was 1% and the Z score was -0.08.
`C[C@H]1CCCCN1C(=O)CN1CCN(c2cc(Br)cnc2C(N)=O)CC1` was tested, and the “% Inhibition” value was -7% and the Z score was 0.71.
`Cc1cc(Cn2ccnc2-c2[nH]cnc2C)on1` was tested, and the “% Inhibition” value was 8% and the Z score was -1.49.
`CCc1nc(N[C@H]2COCC[C@@H]2Oc2ccc(CO)cc2)ncc1C` was tested, and the “% Inhibition” value was -6% and the Z score was 0.96.
For `CO[C@H](c1nc(Cc2ccc3[nH]ncc3c2)no1)C1CC1`, the “% Inhibition” value was -41% and the Z score was 4.82.
With `O=C(NCc1ccccn1)c1c[nH]nc1-c1ccccc1` the “% Inhibition” value was -12% and the Z score was 1.59.
For `O=C(c1ccc(-c2cn(-c3ccccc3)cn2)cc1)N1CCOC[C@@H](O)C1`, the “% Inhibition” value was 5% and the Z score was -0.8.
In the case of `Cc1ccc(C(=O)NCc2cc(COC(C)(C)C)on2)nc1C`, the “% Inhibition” value is reported as -9% and the Z score is reported as 1.39.
